Experimental data taken from PubChem BioAssay AID540317 (National Center for Advancing Translational Sciences (NCATS), 2011).
About 2,200 (0.56%) of roughly 390,000 compounds were called active. This list was built around the results that the source calls inconclusive (neither active nor inactive); the mix of calls is not that of the screen. Calls come from the whole dose curve; as a rule, active = well fitted inhibition curve with a large enough effect; inconclusive = small, poorly fitted or top-dose-only effect; inactive = no such curve, though single readings can be large or run the other way. Where the call is inconclusive, the potency comes from a doubtful curve fit.
Note: nearly all actives have a fitted effect of over 70% in size.
Potency is the fitted concentration of half-maximal effect; tags give direction and shape of the fitted curve.

What follows are molecules tested against Chromobox protein homolog 1 (Homo sapiens) (UniProt P83916) (assay: HTS for Inhibitors of HP1-beta Chromodomain Interactions with Methylated Histone Tails). Settings: AlphaScreen HP1-beta / biotin-H3K9me3 peptide binding; series mostly up to 114 µM; activity change, negative = inhibition: at the top concentration.
Chain of UniProt P83916 (P83916 whole entry, looked up): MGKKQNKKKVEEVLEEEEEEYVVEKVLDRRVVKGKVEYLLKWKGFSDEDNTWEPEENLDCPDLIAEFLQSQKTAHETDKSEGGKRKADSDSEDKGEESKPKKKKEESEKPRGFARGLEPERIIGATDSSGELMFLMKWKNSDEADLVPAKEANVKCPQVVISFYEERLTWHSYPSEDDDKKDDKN
Procedure, shortened: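 AlphaScreen: HP1-beta (50 nM) preformed 30 min with biotin-H3(1-18)K9me3 peptide (50 nM) in PBS pH 7.4, 0.01% Tween-20. Compound added for 30 min at RT, then streptavidin donor/nickel chelate acceptor beads (10 ug/mL) for 30 min.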
In the case of O=C(CCc1ccccc1)N1CCCC(Nc2ccc(F)cc2)C1 (stereo not drawn), the “activity change, negative = inhibition” value is reported as inactive: 23.1%. In the case of CC(OC(=O)c1n[nH]c2ccccc12)C(=O)Nc1ccccc1[N+](=O)[O-] (stereo not drawn), the Potency is reported as inconclusive: 22.4 µM [inhibitor, partial curve, poor fit]. CCOC(=O)c1oc2nc(C)c3c(c2c1N)CC(C)(C)OC3 was tested, and the Potency was inconclusive: 5.62 µM [inhibitor, full curve]. In the case of COC(=O)c1ccc(CCc2cc(O)c(Br)cc2O)cc1, the Potency is reported as inconclusive: 3.98 µM [inhibitor, full curve, poor fit]. With Fc1ccc(Nc2nnns2)cc1 the Potency was inconclusive: 25.1 µM [inhibitor, partial curve]. CCOCCCNC(=O)C1CCN(Cc2cccc(OCc3ccccc3)c2)CC1 was tested, and the Potency was inconclusive: 56.2 µM [inhibitor, partial curve, poor fit]. CCOC(=O)c1ccc(NC(=O)CSc2nnc(CNc3ccc(C)cc3)n2C)cc1 was tested, and the “activity change, negative = inhibition” value was inactive: 57.6%. Cc1ccc(S(=O)(=O)N2CCN(Cc3nc4sc5c(c4c(=O)[nH]3)CCCC5)CC2)cc1 was tested, and the Potency was inconclusive: 79.4 µM [inhibitor, single point]. With CCOC(=O)c1sc(NC(=O)CN2CCN(c3ccc(OC)cc3)CC2)nc1C the Potency was inconclusive: 44.7 µM [inhibitor, partial curve]. In the case of COc1cccc(-c2nnc(SCC(=O)NCc3ccc4c(c3)OCO4)n2Cc2ccco2)c1, the “activity change, negative = inhibition” value is reported as inactive: 24.7%. With COc1ccc(Nc2nc(N)c(C(=O)c3ccc(F)cc3)s2)cc1 the “activity change, negative = inhibition” value was inactive: -4.14%. With O=C(O)C1=NN(c2ccccc2)C(=O)CC1 the “activity change, negative = inhibition” value was inactive: 29.2%. With COc1ccc(OCCN(C)CC(=O)Nc2c(C)cccc2C)cc1 the Potency was inconclusive: 31.6 µM [inhibitor, partial curve]. For Cc1ccc(CNC(=O)C2CCN(c3nn4c(=O)cc(C)nc4s3)CC2)cc1, the “activity change, negative = inhibition” value was inactive: 34.1%. For CSc1ccc(CN(C)C(C)C(=O)NCc2ccccc2)cc1 (stereo not drawn), the Potency was inconclusive: 89.1 µM [inhibitor, single point]. CC(c1ccccc1)C1OCC(C[N+]2(C)CCCCC2)O1 (stereo not drawn) was tested, and the Potency was inconclusive: 89.1 µM [inhibitor, single point]. With Cc1ccc(N2C(=O)[C@@H]3[C@H](C2=O)C2c4ccccc4C=CN2[C@@H]3C(=O)c2ccco2)cc1 (stereo partly drawn) the Potency was inconclusive: 70.8 µM [inhibitor, partial curve, poor fit]. With CCCS(=O)(=O)c1ncc(Cl)c(C(=O)Nc2ccc(S(=O)(=O)Nc3ncccn3)cc2)n1 the “activity change, negative = inhibition” value was inactive: 62.8%. For COc1cc(OC)cc(C(=O)NC(=S)Nc2ccc(N3CCCC3)cc2)c1, the Potency was inconclusive: 15.8 µM [inhibitor, full curve, poor fit]. With COc1ccccc1N1CCN(C(=O)c2cc3c(=O)n(Cc4ccco4)ccc3nc2C)CC1 the “activity change, negative = inhibition” value was inactive: 69.3%. In the case of COc1cccc(CNCC(=O)N2C(C)CCCC2C)c1 (stereo not drawn), the Potency is reported as inconclusive: 20 µM [inhibitor, full curve]. CNc1ccc(Br)cc(C(=O)/C=C/c2ccc3c(c2)OCO3)c1=O was tested, and the Potency was inconclusive: 28.2 µM [inhibitor, full curve, poor fit]. With Cc1ccc(C(=O)C[n+]2ccc3ccccc3c2)cc1 the “activity change, negative = inhibition” value was inactive: 26.2%. For Cc1ccc(-n2c(O)c(C=Nc3ccccc3-c3n[nH]c(=S)[nH]c3=O)c3ccccc3c2=O)c(C)c1, the Potency was inconclusive: 12.6 µM [inhibitor, partial curve, poor fit]. In the case of O=C(NC(=S)Nc1ccccc1[N+](=O)[O-])c1ccccc1, the Potency is reported as inconclusive: 50.1 µM [inhibitor, partial curve]. With O=[N+]([O-])c1cc(C(F)(F)F)cc([N+](=O)[O-])c1N1CCN(S(=O)(=O)c2ccccc2)CC1 the Potency was inconclusive: 28.2 µM [inhibitor, partial curve, poor fit]. For O=[N+]([O-])c1ccccc1S(=O)(=O)N1CCN(CC2CC3C=CC2C3)CC1 (stereo not drawn), the Potency was inconclusive: 20 µM [inhibitor, full curve]. In the case of O=[N+]([O-])c1cc(-c2nc(-c3ccccc3)no2)ccc1N1CCN(c2ccccc2)CC1, the “activity change, negative = inhibition” value is reported as inactive: 28.5%. In the case of Cc1ccc(Cl)cc1N1CCN(C(=O)CCC(=O)Nc2ccc3nc(N4CCC(C)CC4)cc(C)c3c2)CC1, the “activity change, negative = inhibition” value is reported as inactive: 62.9%. With CC(=O)Nc1sc(C)c(C)c1C(=O)OC(C)C the Potency was inconclusive: 39.8 µM [inhibitor, single point]. For Cc1[nH]n(-c2ccccc2)c(=O)c1N=Nc1cccc(S(=O)(=O)N2CCOCC2)c1, the Potency was inconclusive: 39.8 µM [inhibitor, partial curve]. CN(C)c1ccc(CNc2nc(-c3ccco3)nn2S(=O)(=O)c2ccc3ccccc3c2)cc1 was tested, and the Potency was inconclusive: 8.91 µM [inhibitor, partial curve, poor fit]. With Cc1cc(C)c2c(CC(=O)N(Cc3ccc(N(C)C)cc3)Cc3ccco3)coc2c1 the Potency was inconclusive: 11.2 µM [inhibitor, partial curve, poor fit]. Cc1ccc(C)c(NC(=O)Cn2cc(C(=O)c3ccncc3)c(=O)c3cc(F)ccc32)c1 was tested, and the “activity change, negative = inhibition” value was inactive: 20.2% [at 57 µM]. With O=c1[nH]c(-c2ccccc2)nc(CN2CCCCC2)c1O the Potency was inconclusive: 7.08 µM [inhibitor, full curve]. With CCCCCc1cc(=O)oc2c(C(CCN3CCN(c4ccccc4)CC3)c3ccc(N(C)C)cc3)c(OC)cc(OC)c12 (stereo not drawn) the Potency was inconclusive: 14.1 µM [inhibitor, full curve]. In the case of CCOC(=O)N1CCN(C(=O)CN(c2cccc(Cl)c2C)S(=O)(=O)c2ccc(C)cc2)CC1, the “activity change, negative = inhibition” value is reported as inactive: 18.6%. In the case of Brc1ccc(OCCCN2CCOCC2)cc1, the Potency is reported as inconclusive: 20 µM [inhibitor, partial curve, poor fit]. With COc1ccc(CNc2ncc(-c3ccc(Cl)cc3)n2C)c(OC)c1OC the Potency was inconclusive: 25.1 µM [inhibitor, full curve]. In the case of CCCc1cc(=O)[nH]c(SCC(=O)Nc2ccc(N3CCCCC3)cc2)n1, the “activity change, negative = inhibition” value is reported as inactive: -12.7%. For COc1ccc(C(=S)Nc2ccc(C)cc2)cc1, the Potency was inconclusive: 15.8 µM [inhibitor, full curve]. O=C(Nc1cc(Oc2ccc(Cl)cc2)cc([N+](=O)[O-])c1)c1ccco1 was tested, and the Potency was inconclusive: 35.5 µM [inhibitor, single point]. COCCn1c(SCC(=O)N2CCCCC2)nc2c(c1=O)SC(C)C2 (stereo not drawn) was tested, and the “activity change, negative = inhibition” value was inactive: 44.9%. With Cc1ccc(N=Nc2c(C)[nH]n(-c3ccccc3)c2=O)c(C)c1 the Potency was active: 22.4 µM. For COP(=O)(OC)c1ccc(NCc2cc(O)ccc2O)cc1, the Potency was inconclusive: 17.8 µM [inhibitor, full curve, poor fit]. For COc1ccccc1C(=O)NC(=S)Nc1ccc(N2CCCC2)cc1, the Potency was inconclusive: 39.8 µM [inhibitor, partial curve]. With CC(=O)c1cccc(NC(=O)C2C3C=CC(C4CC34)C2C(=O)O)c1 (stereo not drawn) the “activity change, negative = inhibition” value was inactive: 5.11%. With O=C(Nc1nc(-c2ccccc2)c(-c2ccccc2)o1)c1ccc(F)cc1 the Potency was inconclusive: 10 µM [inhibitor, partial curve, poor fit]. With O=[N+]([O-])c1cc([N+](=O)[O-])c2n[nH]c(-c3ccccc3)c2c1 the “activity change, negative = inhibition” value was inactive: 115%. In the case of Nc1nc(Cl)nc(N(c2ccccc2)c2ccccc2)n1, the Potency is reported as inconclusive: 39.8 µM [inhibitor, single point]. With S=c1nc[nH]c2c1ncn2-c1ccc(Cl)cc1 the Potency was inconclusive: 56.2 µM [inhibitor, single point]. COc1cccc(CNC(=O)C2CCN(S(=O)(=O)c3ccc4c(c3)NC(=O)C(C)S4)CC2)c1 (stereo not drawn) was tested, and the “activity change, negative = inhibition” value was inactive: 31.5%. With CCOC(=O)C(=NC1CCS(=O)(=O)C1)NNc1cc(Cl)ccc1Cl (stereo not drawn) the Potency was inconclusive: 39.8 µM [inhibitor, partial curve, poor fit]. For CC(C)c1cccc(OCCCCN(C)C)c1, the Potency was inconclusive: 79.4 µM [inhibitor, single point]. With Nc1nncn1C(=O)CCCOc1ccc(Cl)cc1Cl the “activity change, negative = inhibition” value was inactive: 46.6%. In the case of CC(c1nc2ccccc2c(=O)[nH]1)N1CCN(C)CC1 (stereo not drawn), the Potency is reported as inconclusive: 39.8 µM [inhibitor, single point]. For CC(OC(=O)CSc1ccc([N+](=O)[O-])cc1)C(=O)NCc1ccco1 (stereo not drawn), the “activity change, negative = inhibition” value was inactive: -4.52%. In the case of CCn1c2ccccc2c2cc(NC(=O)CSc3nnc(-c4ccc(OC)c(OC)c4)n3N)ccc21, the “activity change, negative = inhibition” value is reported as inactive: 13.3%. With Cc1ccc(OCC(=O)NCC2(N3CCN(C)CC3)CCCCC2)cc1C the “activity change, negative = inhibition” value was inactive: 70.2%. For O=c1c(-c2ccco2)[n+]([O-])c2ccccc2n1OCc1ccccc1, the Potency was inconclusive: 44.7 µM [inhibitor, partial curve]. COc1ccc(N2CCN(C(CNS(=O)(=O)c3ccc4c(c3)OCCO4)c3ccco3)CC2)cc1 (stereo not drawn) was tested, and the Potency was inconclusive: 39.8 µM [inhibitor, partial curve]. For O=[N+]([O-])c1ccccc1OCCOCCOc1cccc2cccnc12, the Potency was inconclusive: 31.6 µM [inhibitor, single point]. For Oc1c(I)cc(Cl)c2cccnc12, the “activity change, negative = inhibition” value was inactive: 3.52%. In the case of NC(=S)NN=C1c2ccccc2-c2c(F)c(F)c(F)c(F)c21, the Potency is reported as inconclusive: 15.8 µM [inhibitor, full curve, poor fit]. With O=S(=O)(c1ccc2ccccc2c1)n1nc(-c2ccco2)nc1NCc1cccc(Cl)c1 the “activity change, negative = inhibition” value was inactive: 23.1%. In the case of CCCN1C(=O)/C(=C/c2ccc(N3CCCC3)c(C)c2)NC1=S, the Potency is reported as inconclusive: 44.7 µM [inhibitor, partial curve]. With Cc1ccc(S(=O)(=O)/N=C2\C=C(Nc3cccc(C(=O)O)c3)C(=O)c3ccccc32)c(C)c1 the Potency was inconclusive: 12.6 µM [inhibitor, partial curve, poor fit]. CCc1ccc(OCC(=O)N/N=C\c2ccco2)c([N+](=O)[O-])c1 was tested, and the Potency was inconclusive: 100 µM [inhibitor, partial curve, poor fit].
